Experimental data published in paper PMC12040169 (PLOS Biology, 2025).
Some of the results follow.

Test system: T1, C. trachomatis L2/434/Bu expressing GFP (CTL2-GFP)
T1 construct: L2/434/Bu GFP intracellular growth in HeLa cells
Parameters: species or system HeLa; C. trachomatis total inclusion area by high-content imaging, normalised to DMSO
Details: total inclusion area; 28.5 h, 10 µM; inhibitor
Procedure, shortened: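 High-content images of fixed, Hoechst-stained infected cultures supply inclusion area and count (growth) plus nuclei number (viability), complementing bulk GFP/resorufin fluorescence. MIC determination is unchanged from the primary assay.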

Compound | % of control remaining
CN1CCN(C)C(COc2cccc(C(F)(F)F)n2)C1 (centres unmarked) [CBK113292] | 104.469
CCOC(=O)N1CCC(NS(=O)(=O)c2ccc(OC)c(OC)c2)CC1 [CBK045464] | 68.7296
C[C@H](Nc1cncc(-c2ccc3ccccc3c2)n1)c1ccccc1 [CBK065799] | 107.442
CN1Cc2ccccc2-c2ccc(O)cc21 [CBK017804] | 58.7526
O=C(C1CC2C=CC1C21CC1)N1CCC(Oc2cccc(F)c2)CC1 (centres unmarked) [CBK281525] | 100.582
O=C1NCCNC(=O)C2(C/C=C/COc3ccccc31)CCN(C(=O)c1cncs1)CC2 [CBK292023] | 92.3497
O=[N+]([O-])c1ccc(CN2CCN(C/C=C/c3ccccc3)CC2)o1 [CBK026551] | 78.538
NC(=O)c1ccccc1-c1cnc(N)c(-c2ccc(O)cc2)n1 [CBK115536] | 82.2637
COc1cc(C)ccc1S(=O)(=O)Nc1cccc2cc[nH]c12 [CBK159511] | 108.206
OC(Cn1ccc2ccccc21)Cn1c(Cc2ccccc2)nc2ccccc21 (centres unmarked) [CBK267954] | 117.804
COCCN1C(=O)C2(CC(=O)N(CC3CCCCC3)C2=O)c2cc(OC)ccc21 (centres unmarked) [CBK075166] | 104.422
O=C(NC(=O)N1CCSC1)c1c(Cl)cccc1Cl [CBK028794] | 76.4668
Cc1cc(=O)oc2cc(NC(=S)NNC(=O)c3ccc4c(c3)c(C)c(C)n4Cc3ccccc3)ccc12 [CBK267138] | 131.838
O=C(O)CNS(=O)(=O)c1ccc(Cl)c(Cl)c1 [CBK266981] | 112.75
Clc1ccc(CN2CCC(Oc3nccnc3OC3CCCCC3)CC2)cc1 [CBK082856T] | 96.3409
CCCCOc1ccc(-c2nonc2NC(=O)COc2ccccc2Cl)cc1 [CBK299792] | 116.178
CCCn1c(N)c(C(=O)CSc2ncnc3sc4c(c23)CCCC4)c(=O)[nH]c1=O [CBK297556] | 103.701
S=c1[nH]nc(-c2ccco2)n1-c1ccc(Cl)cc1 [CBK023586] | 22.3589
CC1=NN(c2ccc([N+](=O)[O-])cc2)C(=O)/C1=C\NCCc1ccc(S(N)(=O)=O)cc1 [CBK263006] | 110.445
Cc1ccc(-c2nnc(COc3ccc(-c4cnc5ccccc5n4)cc3)o2)cc1 [CBK269721] | 61.596
COC(=O)c1ccc(CSc2nnc(-c3ccc(OC)cc3)n2C(C)C)o1 [CBK297523] | 83.0983
FC(F)(F)c1nc2ccccc2[nH]1 [CBK028224] | 37.1137
CCCC(=O)N(C)C(CO)c1cc(OC)ccc1Br (centres unmarked) [CBK304694] | 51.8007
CCN(CC)C(=O)c1c(F)ccc(F)c1C(=O)O [CBK022303] | 87.3398
CCN(CC)CCn1c(OC)cc(=O)[nH]c1=O [CBK264411] | 119.454
CC(C)c1nn(C)c(N(C)C)c1CNCc1cscn1 [CBK304321C] | 92.9031
Cc1ccc(S(=O)(=O)N(CCC#N)CCN2CCCC2)cc1 [CBK028055] | 89.129

Compound | % of control remaining
O=C(NCC1COc2ccccc2O1)N1CCCCC1CO (centres unmarked) [CBK156162] | 97.2771
CC(NC(=O)CN1CCCCCC1=O)c1cc2cc(Cl)ccc2o1 (centres unmarked) [CBK281448] | 106.293
Cc1nc(C2CCN(C(=O)C3CCC3)CC2)nc2c1CCCN2CCc1ccccc1 [CBK285645] | 82.1218
O=C(Nc1ccc(F)cc1)N1Cc2nc[nH]c2C[C@H]1c1nc(-c2ccc(F)cc2)no1 [CBK288970] | 111.961
Oc1cccc2c1CC(NCC(F)(F)C(F)(F)F)CC2 (centres unmarked) [CBK007596] | 100.965
CCN(CC)C(=O)c1cccc(NS(=O)(=O)c2cccc3cccnc23)c1 [CBK038999] | 73.2881
CCCc1nc(SC)ncc1C(=O)Nc1nnc(SCC)s1 [CBK291198] | 82.4505
C=CCOc1ccccc1OCCCN1CCN(C)CC1 [CBK269714C] | 120.013
O=C(Nc1ccc(F)cc1)c1sccc1NS(=O)(=O)Cc1ccccc1 [CBK004574] | 76.0139
O[C@@H]1CN(Cc2ccc(F)c(F)c2)CC[C@H]1NC1CC1 [CBK283319] | 93.9549
Cc1nc(O)cc(C2CCN(C(=O)c3csc4c3CCCC4)CC2)n1 [CBK307618] | 75.5058
CCCCN(C)c1c(C)nc2c(OCc3ccc(S(=O)(=O)N(C)C)cc3)cccn12 [CBK147189] | 97.8211
CCOc1nc(NCCC2=CCCCC2)nc(OCC)n1 [CBK027387] | 65.5615
CC(NS(=O)(=O)c1ccc(CCC(=O)N2CCN(C)CC2)cc1)c1ccccc1 (centres unmarked) [CBK266868] | 125.746
O=C(NCc1ccncc1)c1csc2c(C(F)(F)F)cc(N3CCN(Cc4ccccc4)CC3)nc12 [CBK034294T] | 77.7284
COc1cccc(CNc2ccc(N3CCCCC3)cc2)c1OCc1cccs1 [CBK074531] | 33.6271
NC(=O)CN1CCCN(c2ccnc(OCC3COc4ccccc4O3)n2)CC1 (centres unmarked) [CBK083236T] | 15.9487
Cc1cc2ccccc2n2c(=O)n(CC(=O)N3CCCCC3)nc12 [CBK283878] | 110.707
O=C(NC(c1cccnc1)c1ccc2c(c1)OCO2)C1CCN(CCc2cccs2)CC1 (centres unmarked) [CBK148503] | 91.7573
Cc1nn(Cc2ccccc2)c(C)c1CNC(=O)c1nc(Cl)ccc1Cl [CBK297928] | 102.1
O=C(O)c1ccc2c(c1)C(=O)N(Cc1cccc(CN3C(=O)c4ccc(C(=O)O)cc4C3=O)c1)C2=O [CBK265556] | 94.6932
CCn1nc(C)c(-c2cncn2CCCN2CCCCC2)c1C [CBK281769] | 106.161
O=C(NCc1ccc(Cl)cc1)C1CCCN1c1nc(O)cc(C(F)(F)F)n1 (centres unmarked) [CBK003706] | 88.9133
COc1ccc(CCN(C(C)=O)C2CC(=O)N(c3ccccc3)C2=O)cc1OC (centres unmarked) [CBK262349] | 80.3114
CCOc1ccc(NC(c2ccccc2)c2cc3cc(OC)ccc3[nH]c2=O)cc1 (centres unmarked) [CBK286157] | 136.668
CC(C)Nc1cc(SCc2cccc(C(F)(F)F)c2)ncn1 [CBK107161] | 90.271
O=C1Nc2ccc(-c3ccc4c(c3)OCO4)cc2C(=O)N2CCN(C(=O)CO)C[C@H]12 [CBK289593] | 82.3247

Compound | % of control remaining
CCC1CCCCN1C(=O)c1ccc(C)c(Cl)c1 (centres unmarked) [CBK082756] | 90.6426
Cc1cc(C(F)(F)F)nn1CCNC(=O)c1cn2ccsc2n1 [CBK307260] | 69.7217
O=C(NCc1ccc2c(c1)OCO2)N1CCCCC1CO (centres unmarked) [CBK156166] | 97.7652
CC(=O)Nc1ccc(-c2cc(Nc3ccc(NC(=O)c4ccc(N)cc4)cc3)ncn2)cc1 [CBK091103] | 78.4252
Brc1csc(CNc2ccc3cn[nH]c3c2)c1 [CBK021216] | 51.1976
COc1cc(C(=O)NCc2ccc(-c3csnn3)cc2)cc(OC)c1OC [CBK149308] | 116.734
Cc1onc(-c2ccccc2Cl)c1C(=O)Nc1ccc(CC(=O)O)cc1 [CBK269623] | 71.54
CCCCCn1c(O)nnc1SCc1csc(CS(=O)(=O)c2ccc(Cl)cc2)n1 [CBK007176] | 88.5158
CCCn1nnc(NC(=O)C(C)Oc2ccc(Cl)cc2Cl)n1 (centres unmarked) [CBK266772] | 103.32
Cn1c(=O)oc2cc(S(=O)(=O)N3CCN(C4CCCCC4)CC3)ccc21 [CBK268865] | 101.641
COc1ccc(CN2CCCN(S(=O)(=O)c3ccc(C(=O)c4ccccc4)cc3)CC2)cc1F [CBK062855] | 71.3655
CCn1c(SCC(=O)Nc2c(Cl)cc(Cl)cc2Cl)nnc1-c1ccccc1F [CBK268609] | 96.0415
O=C(c1ccc2ccccc2c1)N1CCC2(CC1)CN(Cc1ccccc1)CCO2 [CBK161118A] | 93.8963
O=C(Nc1ccc(F)cc1)c1[nH]c2ccccc2c1NS(=O)(=O)c1cc(Cl)sc1Cl [CBK050094] | 33.9644
Cc1cccc(N2CCN(CCCOc3ccc(F)c(F)c3)CC2)n1 [CBK025158C] | 93.0348
NS(=O)(=O)c1cc(C(=O)O)ccc1Cl [CBK113676] | 146.385
O=C(NNC(=O)c1cc2ccccc2cc1O)Nc1cccc([N+](=O)[O-])c1 [CBK266882] | 103.589
CC(=O)c1ccc(-c2cnc(Nc3ccc(N4CCOCC4)cc3)c3nccn23)s1 [CBK091231] | 157.559
Cc1ccc(N(CC(=O)Nc2cccnc2)S(=O)(=O)c2ccc(F)cc2)cc1 [CBK263332] | 78.8199
O=C(c1ccccc1Br)N1CCCCC1 [CBK028504] | 35.6023
CC1C(=O)N(c2ccc(Cl)c(Cl)c2)C(=N)N1c1nc(N(C)C)nc(N(C)C)n1 (centres unmarked) [CBK263182] | 111.68
Cn1nc(C2CCCN(C(=O)c3cccc(F)c3)C2)c2cccnc21 (centres unmarked) [CBK282155] | 106.065
Cc1nc(N2CCCCC2)ncc1C(=O)NCc1nonc1C [CBK307243] | 87.5318
CC(=O)N1CCCC(c2[nH]c3cccnc3c2CN(C)C)C1 (centres unmarked) [CBK283469] | 85.3982
O=C(Nc1cccc(-c2nnn[nH]2)c1)c1ccc(C2CCCCC2)cc1 [CBK296712] | 88.1762
Cc1nc(S(=O)(=O)N2CCC(C(=O)N3CCCCC3)CC2)cn1C [CBK305963] | 43.1354
